According to the supplement of paper PMC4604168 (melanoma cell lines):
This is one part of the list. Repeats are few or missing, and single values can be far off.

Legend:
Test in all cases: cell count relative to DMSO control; melanoma cells; higher = more viable cells
Details in all cases: library dose: low library concentration; 72 h
COLO792 = tested on: COLO792
COLO800 = tested on: COLO800
COLO829 = tested on: COLO829
G361 = tested on: G361
IPC-298 = tested on: IPC-298
IST-MEL1 = tested on: IST-MEL1
LB2518-MEL = tested on: LB2518-MEL
LOXIMVI = tested on: LOXIMVI
MEL-HO = tested on: MEL-HO
MZ2-MEL = tested on: MZ2-MEL
MeWo = tested on: MeWo
RPMI7951 = tested on: RPMI7951
RVH-421 = tested on: RVH-421
SkMel28 = tested on: SkMel28
SkMel2 = tested on: SkMel2
SkMel30 = tested on: SkMel30
SkMel5 = tested on: SkMel5
UACC257 = tested on: UACC257
UACC62 = tested on: UACC62
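Also: cell number obtained by counting DAPI-stained nuclei in high-throughput microscope images with image analysis software, screen run in 1,536-well plates.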

SMILES | cell count (COLO792) | cell count (COLO800) | cell count (COLO829) | cell count (G361) | cell count (IPC-298) | cell count (IST-MEL1) | cell count (LB2518-MEL) | cell count (LOXIMVI) | cell count (MEL-HO) | cell count (MZ2-MEL) | cell count (MeWo) | cell count (RPMI7951) | cell count (RVH-421) | cell count (SkMel28) | cell count (SkMel2) | cell count (SkMel30) | cell count (SkMel5) | cell count (UACC257) | cell count (UACC62)
NC(=O)Nc1cc(-c2cccc(F)c2)sc1C(=O)N[C@H]1CCCNC1 + Cn1cncc1[C@@](N)(c1ccc(Cl)cc1)c1ccc2c(c1)c(-c1cccc(Cl)c1)cc(=O)n2C [tipifarnib] (first compound 0.02 µM, partner dose 0.01 µM) | 97.4% | 82.9% | 87.7% | 85.9% | 108% | 106% | 94.9% | 102% | 92.1% | 104% | 102% | 81% | 101% | 111% | 91.1% | 87.9% | 101% | 106% | 81.9%
C[C@]1(c2nc3c(C(N)=O)cccc3[nH]2)CCCN1 [Veliparib] + C=CCn1c(=O)c2cnc(Nc3ccc(N4CCN(C)CC4)cc3)nc2n1-c1cccc(C(C)(C)O)n1 [MK1775] (first compound 1.4 µM, partner dose 0.02 µM) | 89.8% | 101% | 81.5% | 93.7% | 96.9% | 94.3% | 77.3% | 147% | 101% | 95.8% | 90.4% | 101% | 72.9% | 79% | 88.7% | 94.4% | 81.6% | 66.9% | 69.7%
CO[C@@H]1[C@H](N(C)C(=O)c2ccccc2)C[C@H]2O[C@]1(C)n1c3ccccc3c3c4c(c5c6ccccc6n2c5c31)C(=O)NC4 [Midostaurin] + Cc1cc(N2CCOCC2)cc2[nH]c(-c3c(NC[C@@H](O)c4cccc(Cl)c4)cc[nH]c3=O)nc12 [BMS536924] (first compound 0.08 µM, partner dose 0.2 µM) | 95.1% | 65.3% | 81.7% | 94.9% | 90.3% | 95.6% | 77.7% | 182% | 90.6% | 103% | 88% | 87.6% | 82.2% | 86.1% | 71% | 102% | 81.5% | 60.2% | 95.1%
Cc1nc(Nc2ncc(C(=O)Nc3c(C)cccc3Cl)s2)cc(N2CCN(CCO)CC2)n1 [dasatanib] + NCC(=O)Nc1ccc(-n2nc(C(F)(F)F)cc2-c2ccc3c(ccc4ccccc43)c2)cc1 [OSU03012] (first compound 0.004 µM, partner dose 1 µM) | 54.9% | 87.9% | 64.4% | 93.6% | 73.9% | 85.6% | 93.4% | 30.7% | 91.5% | 71.9% | 64.8% | 62.9% | 94.1% | 64.8% | 54.1% | 74.4% | 85% | 77.8% | 76.2%
CO[C@@H]1[C@H](N(C)C(=O)c2ccccc2)C[C@H]2O[C@]1(C)n1c3ccccc3c3c4c(c5c6ccccc6n2c5c31)C(=O)NC4 [Midostaurin] + O=C(O)c1ccc(-c2c[nH]c3ncc(-c4ccccc4)cc23)cc1C1CCCC1 [GSK650394] (first compound 0.08 µM, partner dose 0.16 µM) | 99.1% | 72.5% | 109% | 90% | 96.4% | 96.5% | 94.7% | 95.4% | 86% | 88% | 77.2% | 112% | 86.5% | 96.2% | 86.4% | 103% | 82.7% | 85.6% | 96.5%
NC(=O)Nc1cc(-c2cccc(F)c2)sc1C(=O)N[C@H]1CCCNC1 + NCC(=O)Nc1ccc(-n2nc(C(F)(F)F)cc2-c2ccc3c(ccc4ccccc43)c2)cc1 [OSU03012] (first compound 0.02 µM, partner dose 1 µM) | 91.7% | 71.9% | 75.3% | 95.9% | 77.3% | 106% | 128% | 85.6% | 100% | 87.1% | 46.9% | 87.5% | 112% | 77.3% | 64.3% | 49.1% | 96.5% | 94.1% | 103%
Cc1nc(Nc2ncc(C(=O)Nc3c(C)cccc3Cl)s2)cc(N2CCN(CCO)CC2)n1 [dasatanib] + O=C(Nc1cccc(Cl)c1)Nc1ncc(CCNc2ncnc3ccsc23)s1 [SNS314] (first compound 0.004 µM, partner dose 0.0008 µM) | 60.3% | 80.7% | 55.8% | 85.9% | 99.8% | 81.4% | 89.8% | 48.8% | 80.7% | 79% | 93.3% | 82.1% | 86.9% | 76.7% | 88.5% | 101% | 86.2% | 72.4% | 81.1%
C=CCn1c(=O)c2cnc(Nc3ccc(N4CCN(C)CC4)cc3)nc2n1-c1cccc(C(C)(C)O)n1 + O=C(O)c1ccc(-c2c[nH]c3ncc(-c4ccccc4)cc23)cc1C1CCCC1 [GSK650394] (first compound 0.02 µM, partner dose 0.16 µM) | 105% | 67.6% | 104% | 96.1% | 87.3% | 87.9% | 84.2% | 77.6% | 84.5% | 103% | 92.7% | 89.5% | 85.8% | 81.2% | 89.2% | 90.5% | 97.5% | 97.3% | 79.6%
OCCn1cc(-c2cnc3nnn(Cc4ccc5ncccc5c4)c3n2)cn1 + CN(C)S(=O)(=O)c1ccc2c(c1)/C(=C/c1cc3c([nH]1)CCCC3)C(=O)N2 [SU6656] (first compound 1 µM, partner dose 0.4 µM) | 94.8% | 96.9% | 89.3% | 94.7% | 92.6% | 106% | 95.9% | 113% | 111% | 106% | 93.5% | 111% | 89.1% | 94% | 93.8% | 87.3% | 94.7% | 98.8% | 103%
C=CCn1c(=O)c2cnc(Nc3ccc(N4CCN(C)CC4)cc3)nc2n1-c1cccc(C(C)(C)O)n1 + COc1cc2c(Oc3ccc4[nH]c(C)cc4c3F)ncnc2cc1OCCCN1CCCC1 [cediranib] (first compound 0.02 µM, partner dose 0.4 µM) | 79.9% | 85.6% | 89.2% | 99.9% | 93.9% | 109% | 79.8% | 82.5% | 92.3% | 97.3% | 92.3% | 89.7% | 96.2% | 84% | 94.7% | 86.3% | 84.6% | 89.2% | 94.3%
CN(C)S(=O)(=O)c1ccc2c(c1)/C(=C/c1cc3c([nH]1)CCCC3)C(=O)N2 + O=C(O)c1ccc(-c2c[nH]c3ncc(-c4ccccc4)cc23)cc1C1CCCC1 [GSK650394] (first compound 0.4 µM, partner dose 0.16 µM) | 107% | 71.1% | 104% | 82.6% | 92.3% | 99.9% | 90.4% | 139% | 96.1% | 96.6% | 85.7% | 96.4% | 96.7% | 74.5% | 96% | 95.1% | 96.7% | 75.6% | 104%
C[C@]1(c2nc3c(C(N)=O)cccc3[nH]2)CCCN1 [Veliparib] + OCCn1cc(-c2cnc3nnn(Cc4ccc5ncccc5c4)c3n2)cn1 [PF04217903] (first compound 1.4 µM, partner dose 1 µM) | 107% | 94.9% | 90% | 92.3% | 99.8% | 99.4% | 81.2% | 101% | 99.9% | 96.9% | 100% | 93.1% | 112% | 97.2% | 91.6% | 92.7% | 110% | 103% | 77%
NC(=O)Nc1cc(-c2cccc(F)c2)sc1C(=O)N[C@H]1CCCNC1 + OCCn1cc(-c2cnc3nnn(Cc4ccc5ncccc5c4)c3n2)cn1 [PF04217903] (first compound 0.02 µM, partner dose 1 µM) | 87.7% | 101% | 96.6% | 98% | 114% | 107% | 105% | 64.6% | 88.6% | 118% | 117% | 105% | 132% | 120% | 113% | 95.3% | 110% | 144% | 105%
CO[C@@H]1[C@H](N(C)C(=O)c2ccccc2)C[C@H]2O[C@]1(C)n1c3ccccc3c3c4c(c5c6ccccc6n2c5c31)C(=O)NC4 [Midostaurin] + COc1cc2c(Oc3ccc4[nH]c(C)cc4c3F)ncnc2cc1OCCCN1CCCC1 [cediranib] (first compound 0.08 µM, partner dose 0.4 µM) | 87.7% | 98% | 107% | 84.6% | 102% | 94.1% | 111% | 98% | 98.9% | 108% | 85.6% | 91.8% | 101% | 84.7% | 73.7% | 101% | 76.6% | 83% | 88.4%
C[C@]1(c2nc3c(C(N)=O)cccc3[nH]2)CCCN1 [Veliparib] + CC(C)(C)c1cnc(CSc2cnc(NC(=O)C3CCNCC3)s2)o1 [SNS-032] (first compound 1.4 µM, partner dose 0.01 µM) | 85.3% | 71.9% | 96.8% | 87.3% | 100% | 91.6% | 85.8% | 82.9% | 94.7% | 93.6% | 95.5% | 101% | 77.1% | 79.5% | 93.5% | 84.3% | 95.5% | 71.4% | 75.3%
C[C@]1(c2nc3c(C(N)=O)cccc3[nH]2)CCCN1 [Veliparib] + NCC(=O)Nc1ccc(-n2nc(C(F)(F)F)cc2-c2ccc3c(ccc4ccccc43)c2)cc1 [OSU03012] (first compound 1.4 µM, partner dose 1 µM) | 82.8% | 81.3% | 86% | 88.7% | 83.2% | 89.8% | 94.9% | 67.2% | 105% | 91.7% | 57.5% | 128% | 95.7% | 70.3% | 77.3% | 47.5% | 105% | 108% | 84.8%
CO[C@@H]1[C@H](N(C)C(=O)c2ccccc2)C[C@H]2O[C@]1(C)n1c3ccccc3c3c4c(c5c6ccccc6n2c5c31)C(=O)NC4 [Midostaurin] + NC(=O)Nc1cc(-c2cccc(F)c2)sc1C(=O)N[C@H]1CCCNC1 [AZD7762] (first compound 0.08 µM, partner dose 0.02 µM) | 97% | 124% | 87.4% | 99.8% | 91.7% | 107% | 116% | 73.5% | 88.3% | 94.3% | 79.2% | 74.7% | 89.6% | 103% | 97% | 103% | 106% | 94.6% | 97.2%
